In all, about 310,000 compounds went through this assay and about 2,200 (0.71%) showed an effect of 50% or more. Effects have a minus sign here. This is one part of the list.
What follows are compounds tested against human ether-à-go-go-related gene (hERG) potassium channel (human, UniProt Q12809) (assay: primary screen, population patch clamp on CHO cells stably expressing hERG).
human ether-à-go-go-related gene (hERG) potassium channel, sequence (Q12809 whole entry, looked up): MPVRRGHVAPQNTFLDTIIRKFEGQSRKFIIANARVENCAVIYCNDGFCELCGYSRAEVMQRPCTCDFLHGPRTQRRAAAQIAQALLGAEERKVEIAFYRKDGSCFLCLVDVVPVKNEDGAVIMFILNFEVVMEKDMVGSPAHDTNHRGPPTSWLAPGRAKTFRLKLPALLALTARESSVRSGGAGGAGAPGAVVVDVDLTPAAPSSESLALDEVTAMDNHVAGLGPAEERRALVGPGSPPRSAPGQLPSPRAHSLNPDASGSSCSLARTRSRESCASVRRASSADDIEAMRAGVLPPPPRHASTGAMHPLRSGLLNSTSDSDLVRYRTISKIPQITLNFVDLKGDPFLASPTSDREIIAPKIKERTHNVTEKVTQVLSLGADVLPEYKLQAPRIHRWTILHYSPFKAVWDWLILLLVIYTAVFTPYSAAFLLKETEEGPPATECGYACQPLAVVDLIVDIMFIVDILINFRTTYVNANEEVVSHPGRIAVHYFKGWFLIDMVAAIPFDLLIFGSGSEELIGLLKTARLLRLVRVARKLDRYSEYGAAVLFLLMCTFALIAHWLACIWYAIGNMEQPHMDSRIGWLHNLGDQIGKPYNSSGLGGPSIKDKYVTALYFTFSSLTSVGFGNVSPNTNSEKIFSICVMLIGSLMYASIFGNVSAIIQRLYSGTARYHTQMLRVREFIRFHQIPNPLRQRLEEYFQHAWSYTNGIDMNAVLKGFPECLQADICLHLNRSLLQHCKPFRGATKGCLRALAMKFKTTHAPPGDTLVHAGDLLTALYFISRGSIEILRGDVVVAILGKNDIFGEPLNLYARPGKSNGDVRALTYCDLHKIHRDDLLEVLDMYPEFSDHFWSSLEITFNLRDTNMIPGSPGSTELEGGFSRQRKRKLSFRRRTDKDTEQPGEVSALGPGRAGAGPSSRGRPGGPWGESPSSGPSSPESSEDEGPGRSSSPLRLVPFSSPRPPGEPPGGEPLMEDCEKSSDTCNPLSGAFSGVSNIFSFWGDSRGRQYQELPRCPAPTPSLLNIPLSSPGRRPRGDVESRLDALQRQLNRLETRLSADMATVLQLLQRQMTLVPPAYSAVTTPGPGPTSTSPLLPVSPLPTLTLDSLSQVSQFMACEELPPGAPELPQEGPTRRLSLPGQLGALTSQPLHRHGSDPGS

Row | Structure (SMILES) | hERG current change (%, negative = inhibition) at 1uM
1 | CCOC(=O)Cc1c(C)nc2cc(-c3ccc(Cl)cc3)[nH]n2c1=O | 13.4%
2 | Cn1cc(CCC(=O)N2CCCC(C(=O)c3cccc4ccccc34)C2)cn1 (stereo not drawn) | 5.01%
3 | Cc1oc(-c2ccccc2Cl)nc1CSCC(=O)NC1CC1 | -0.184%
4 | Cn1c(SCC(=O)Nc2ccc(Br)cn2)nnc1C1CC1 | 17.8%
5 | CC(SCc1ccccc1)C(=O)N/N=C/c1cccs1 (stereo not drawn) | 13.8%
6 | O=C(NCCc1ccccn1)c1ccc(OC2CCN(Cc3ccccn3)CC2)cc1 | 12.8%
7 | O=C(CCC(=O)c1ccc(Cl)s1)Nc1ncccc1O | 5.07%
8 | CC(=O)Nc1ccc(S(=O)(=O)N(C)CC(=O)NCCC2=CCCCC2)cc1 | 10.3%
9 | C=CCn1cnc2c(c1=O)c1nc3ccccc3nc1n2/N=C/c1cccc(OC)c1OC | 6.54%
10 | CN(C)c1nc(Cl)cc(N2CCOCC2)n1 | 7.09%
11 | CCN1CCN(C(=O)c2cc3cc([N+](=O)[O-])ccc3oc2=O)CC1 | -1.11%
12 | CCn1nnc2cc(C(=O)Nc3cc(Cl)ccc3C)ccc21 | -2.41%
13 | Cc1ccc2nc(CSc3nnc(-c4ccco4)n3-c3ccccc3)cc(=O)n2c1 | -2.87%
14 | Cc1cc(Nc2cccc(Cl)c2)nc(-c2ccccc2O)n1 | 12.1%
15 | COc1ccc(C2c3c(c(C)c(C)oc3=O)Oc3c(C)c(C)oc(=O)c32)cc1 | 14.7%
16 | Cc1ccc(OCc2nc(C#N)c(N3CCCC3)o2)cc1 | -10.7%
17 | Oc1ccccc1N=Cc1c(O)ccc2oc3c(c12)CCCC3 | 18.2%
18 | CC(C)CCOc1ccc(C(=O)N2CCN(c3ncccn3)CC2)cc1 | 9.53%
19 | O=C1NC2(CCCCC2)C(=O)N1CCN1C(=O)c2ccccc2C1=O | 17.7%
20 | COC(=O)c1cc(Br)c(=O)n(CCN2CCCC2)c1 | 8.37%
21 | CCCC(=O)N(Cc1cc(=O)[nH]c2ccccc12)c1ccccc1C | 13.1%
22 | O=C(NC1CCCCC1)C(c1cccnc1)N(C(=O)CCl)c1ccccc1Cl (stereo not drawn) | 4.69%

Row | Structure (SMILES) | hERG current change (%, negative = inhibition) at 1uM
23 | CSc1ccc(/C=N/N(C)S(=O)(=O)c2ccc(C)cc2)cc1 | 12.6%
24 | NC(=O)c1ccsc1NC(=O)COC(=O)c1cc(=O)[nH]c2ccccc12 | 15.4%
25 | COc1ccc(OC)c(NC(=O)C2CCCN2S(=O)(=O)c2cccc3nsnc23)c1 (stereo not drawn) | 17%
26 | Cc1ccc(-c2nnc(SCC(C)C)n2C)cc1 | 6.53%
27 | O=C(Oc1ccccc1-c1csnn1)c1cccs1 | 4.7%
28 | CC(NC(=O)CCNC(=O)c1ccccc1Cl)c1ccc(-n2ccnc2)cc1 (stereo not drawn) | -4.42%
29 | CCC(C(=O)OC)n1cnc2c(nnn2-c2ccc(F)cc2)c1=O (stereo not drawn) | 3.75%
30 | CCOC(=O)Cn1nnc2c(sc3nc4c(c(-c5ccccc5)c32)CCC4)c1=O | 13.8%
31 | NC(=O)C1CCN(c2oc(/C=C/c3ccccc3)nc2S(=O)(=O)c2ccccc2)CC1 | 2.59%
32 | Cc1ccc2nc(SCC(=O)NC3CCCc4ccccc43)[nH]c2c1 (stereo not drawn) | 13.7%
33 | O=C(COc1ccccc1)Nc1cc(NC(=O)COc2ccccc2)cc(C(=O)O)c1 | 9.77%
34 | CC1=C/C(=N\OS(=O)(=O)c2ccccc2)C=CC1=O | 8.88%
35 | CCC(=O)Nc1sc(Cc2ccc3c(c2)OCO3)c(C)c1C(N)=O | 8.83%
36 | COc1ccc(C/C(N)=N/OC(=O)C(c2ccccc2)c2ccccc2)cc1OC | -10.1%
37 | Cc1cc(NC(=O)CCN2C(=O)/C(=C\c3ccccc3)SC2=S)no1 | 5.57%
38 | CCN(CC)c1ccc(N2C(=O)CSC2=S)cc1 | -4.65%
39 | Cc1ccc(S(=O)(=O)NC2(C(F)(F)F)C(=O)Nc3c2c(=O)n(C)c(=O)n3C)cc1 (stereo not drawn) | 14.7%
40 | CCCCn1c(N)c(N(CC(C)C)C(=O)CSCc2c(C)noc2C)c(=O)[nH]c1=O | 5.74%
41 | c1ccc(CN2CCN(c3nc4ccccc4n4cnnc34)CC2)cc1 | 10.8%
42 | C=CCSC1=C(C#N)C2(CCCCC2)C(C#N)C(=O)N1 (stereo not drawn) | 3.45%
43 | COc1ccccc1CCc1nnc(CCC(=O)NC(C)Cc2ccsc2)o1 (stereo not drawn) | 5.34%
44 | CC(Oc1ccc(Cl)cc1Cl)C(=O)Nc1ncccn1 (stereo not drawn) | 13.5%

Row | Structure (SMILES) | hERG current change (%, negative = inhibition) at 1uM
45 | CCc1cccc(CC)c1N1C(=O)c2cc(N3CCOCC3)c([N+](=O)[O-])cc2C1=O | 5.63%
46 | COc1ccc(NC(=O)C2CCCN(S(=O)(=O)c3ccc4[nH]c(=O)ccc4c3)C2)cc1 (stereo not drawn) | 10.8%
47 | COc1ccc(-c2nn(C)c(=O)c3ccccc23)cc1CNC(=O)C1CCCCC1 | 0.228%
48 | CCCCOC(=O)c1[nH]c2c(c1C)C(=O)CC(c1cc(OC)c(OC)c(OC)c1)C2 (stereo not drawn) | 11.6%
49 | O=C(CN(c1ccc(F)cc1)S(=O)(=O)c1ccc2c(c1)OCCO2)NCc1cccnc1 | 11.9%
50 | O=C1C=C(c2ccc(O)cc2)C[C@@H](c2ccc3c(c2)OCO3)C1 | 1.45%
51 | CN(C)S(=O)(=O)c1ccc(Cl)c(NC(=O)COC(=O)/C=C/c2cnc3ccccc3n2)c1 | 8.52%
52 | Cc1c(NC(=O)CCCOc2ccccc2)cccc1[N+](=O)[O-] | 9.61%
53 | CCOc1ccc(C(=O)Cn2cnc3ccccc3c2=O)cc1 | 8.35%
54 | O=c1c2c(-c3cccs3)csc2ncn1-c1ccccc1 | 8.07%
55 | NCCCC[C@H]1NC(=O)[C@H](CCC(=O)O)NC(=O)c2cc([N+](=O)[O-])cc(I)c2OCC[C@@H](C(N)=O)NC1=O | 15.1%
56 | Cc1cc(C)cc(Oc2ccc(-c3nnc(-c4ccccc4)o3)cc2[N+](=O)[O-])c1 | 12.3%
57 | O=C1N[C@@H](Cc2ccccc2)C(=O)N2[C@@H]3N(S(=O)(=O)c4ccc(F)cc4)c4ccccc4[C@]3(Br)C[C@@H]12 | 7.4%
58 | Cc1sc2ncn(C(C)C(=O)OC3CCCCC3)c(=O)c2c1C (stereo not drawn) | 9.67%
59 | Cc1ccc(-n2c(-c3ccccc3)n[nH]c2=S)cc1 | 14.8%
60 | COc1cccc(C2C(C(=O)c3ccc(C)o3)=C(O)C(=O)N2CCN2CCOCC2)c1 (stereo not drawn) | 18.1%
61 | Cc1cccc(C)c1NC(=S)N1CC(C)OC(C)C1 (stereo not drawn) | 6.95%
62 | C[C@@H]1C[C@@H]([C@H](O)CC2CC(=O)NC(=O)C2)C(=O)[C@@H](C)C1 | 13.3%
63 | Clc1ccc(C2=Nc3cc(Cl)ccc3OC2)cc1 | 12.4%
64 | CCc1ccc(-c2cc3c(=O)n(CC(=O)N4CCCC4)nc(C)n3n2)cc1 | 8.3%
65 | O=C(Nn1cnc2ccccc2c1=O)c1ccccc1[N+](=O)[O-] | 9.96%
66 | COCC(=O)Nc1cc(C(=O)Nc2ccccc2C)ccc1Cl | 10.6%

Row | Structure (SMILES) | hERG current change (%, negative = inhibition) at 1uM
67 | COc1ccccc1CC(=O)Nc1cccc(F)c1 | 12.4%
68 | CCC(=O)c1cn(CC(=O)Nc2ccccc2Cl)c2ccccc12 | 15.9%
69 | O=C(O)c1nccnc1C(=O)NCCc1c[nH]c2ccccc12 | 0.225%
70 | O=S(=O)(CCSc1nc2ccccc2o1)Cc1ccccc1 | 8.69%
71 | CCNC(=O)c1ccccc1NC(=O)c1cccc(S(=O)(=O)N2CCOCC2)c1 | -43.8%
72 | O=C(Nc1ccc2[nH]c(=O)[nH]c2c1)c1ccc(Br)o1 | 4.04%
73 | CC(C)NC(=O)c1onc(CSc2ccc(F)cc2)c1C(=O)O | 9.48%
74 | O=C(CN1C(=O)C2CC=CCC2C1=O)NC1CCCc2ccccc21 (stereo not drawn) | 10.8%
75 | O=S(=O)(Nc1ccc(-c2nc3cccnc3s2)cc1)c1cccs1 | 17%
76 | Cc1ccc(SCC(=O)OCC(=O)N2CCN(C(=O)c3ccco3)CC2)c(C)c1 | -1.4%
77 | Cc1cc(Br)ccc1NC(=O)c1ccco1 | 12.2%
78 | Cc1cccc(Cn2c(-c3ccc[nH]c3=O)nc3ccccc32)c1 | 9.51%
79 | CCOc1ccc(CN(C)C(=O)CNC(=O)c2ccc(Br)o2)cc1OC | 8.7%
80 | CC(C)CC(c1nnnn1CCc1ccccc1)N1CCN(C(=O)c2ccco2)CC1 (stereo not drawn) | -10.5%
81 | COC(=O)CCCC1=CC2=CC(=O)C(C)(OC(=O)c3cccs3)C(=O)C2=CN1C1CCCCC1 (stereo not drawn) | 7.32%
82 | Cc1cccc(OC2(c3ccccc3)OC(=O)c3ccccc32)c1C (stereo not drawn) | 2.92%
83 | CCO[C@@H]1OC(C(=O)Nc2ccccc2)=C[C@H](c2ccc(C(F)(F)F)cc2)[C@H]1CCCO | 15.7%
84 | O=C(CCc1ccccc1)Nc1cccnc1Cl | 16.1%
85 | CCC(C(=O)c1ccccc1)N(C(=O)c1ccccc1Cl)N1C(=O)C2C3C=CC(C3)C2C1=O (stereo not drawn) | 4.35%
86 | Cc1ccnc(NS(=O)(=O)c2ccc(NS(=O)(=O)c3cccs3)cc2)n1 | 11.6%
87 | CCOC(=O)[C@]1(C#N)[C@@H]2C=CC(C(C)=O)=CN2[C@@H](C(N)=O)[C@@H]1c1ccsc1 | 11.3%
